Test results published in article PMC9834408, “The SPOC domain is a phosphoserine binding module that bridges transcription machinery with co- and post-transcriptional regulators” (Nature Communications, 2023).
These are yes or no findings as the source states them, for the method shown. Binding seen in cells or lysates may run through a third protein. Some binding calls cover weakened binding; strength is not graded here. For part of these data: Sequences can lack the tags named with a protein.

Amino acid sequences for entries named in this document (tags omitted).
UniProt P12004: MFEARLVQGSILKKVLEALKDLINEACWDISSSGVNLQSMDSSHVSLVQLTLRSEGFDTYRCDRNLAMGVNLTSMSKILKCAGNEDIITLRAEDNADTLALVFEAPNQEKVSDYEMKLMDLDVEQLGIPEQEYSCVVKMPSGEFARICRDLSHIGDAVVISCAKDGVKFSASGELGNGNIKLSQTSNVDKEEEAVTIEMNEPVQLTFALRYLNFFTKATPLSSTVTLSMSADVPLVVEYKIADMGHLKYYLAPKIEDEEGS
UniProt Q69YN4: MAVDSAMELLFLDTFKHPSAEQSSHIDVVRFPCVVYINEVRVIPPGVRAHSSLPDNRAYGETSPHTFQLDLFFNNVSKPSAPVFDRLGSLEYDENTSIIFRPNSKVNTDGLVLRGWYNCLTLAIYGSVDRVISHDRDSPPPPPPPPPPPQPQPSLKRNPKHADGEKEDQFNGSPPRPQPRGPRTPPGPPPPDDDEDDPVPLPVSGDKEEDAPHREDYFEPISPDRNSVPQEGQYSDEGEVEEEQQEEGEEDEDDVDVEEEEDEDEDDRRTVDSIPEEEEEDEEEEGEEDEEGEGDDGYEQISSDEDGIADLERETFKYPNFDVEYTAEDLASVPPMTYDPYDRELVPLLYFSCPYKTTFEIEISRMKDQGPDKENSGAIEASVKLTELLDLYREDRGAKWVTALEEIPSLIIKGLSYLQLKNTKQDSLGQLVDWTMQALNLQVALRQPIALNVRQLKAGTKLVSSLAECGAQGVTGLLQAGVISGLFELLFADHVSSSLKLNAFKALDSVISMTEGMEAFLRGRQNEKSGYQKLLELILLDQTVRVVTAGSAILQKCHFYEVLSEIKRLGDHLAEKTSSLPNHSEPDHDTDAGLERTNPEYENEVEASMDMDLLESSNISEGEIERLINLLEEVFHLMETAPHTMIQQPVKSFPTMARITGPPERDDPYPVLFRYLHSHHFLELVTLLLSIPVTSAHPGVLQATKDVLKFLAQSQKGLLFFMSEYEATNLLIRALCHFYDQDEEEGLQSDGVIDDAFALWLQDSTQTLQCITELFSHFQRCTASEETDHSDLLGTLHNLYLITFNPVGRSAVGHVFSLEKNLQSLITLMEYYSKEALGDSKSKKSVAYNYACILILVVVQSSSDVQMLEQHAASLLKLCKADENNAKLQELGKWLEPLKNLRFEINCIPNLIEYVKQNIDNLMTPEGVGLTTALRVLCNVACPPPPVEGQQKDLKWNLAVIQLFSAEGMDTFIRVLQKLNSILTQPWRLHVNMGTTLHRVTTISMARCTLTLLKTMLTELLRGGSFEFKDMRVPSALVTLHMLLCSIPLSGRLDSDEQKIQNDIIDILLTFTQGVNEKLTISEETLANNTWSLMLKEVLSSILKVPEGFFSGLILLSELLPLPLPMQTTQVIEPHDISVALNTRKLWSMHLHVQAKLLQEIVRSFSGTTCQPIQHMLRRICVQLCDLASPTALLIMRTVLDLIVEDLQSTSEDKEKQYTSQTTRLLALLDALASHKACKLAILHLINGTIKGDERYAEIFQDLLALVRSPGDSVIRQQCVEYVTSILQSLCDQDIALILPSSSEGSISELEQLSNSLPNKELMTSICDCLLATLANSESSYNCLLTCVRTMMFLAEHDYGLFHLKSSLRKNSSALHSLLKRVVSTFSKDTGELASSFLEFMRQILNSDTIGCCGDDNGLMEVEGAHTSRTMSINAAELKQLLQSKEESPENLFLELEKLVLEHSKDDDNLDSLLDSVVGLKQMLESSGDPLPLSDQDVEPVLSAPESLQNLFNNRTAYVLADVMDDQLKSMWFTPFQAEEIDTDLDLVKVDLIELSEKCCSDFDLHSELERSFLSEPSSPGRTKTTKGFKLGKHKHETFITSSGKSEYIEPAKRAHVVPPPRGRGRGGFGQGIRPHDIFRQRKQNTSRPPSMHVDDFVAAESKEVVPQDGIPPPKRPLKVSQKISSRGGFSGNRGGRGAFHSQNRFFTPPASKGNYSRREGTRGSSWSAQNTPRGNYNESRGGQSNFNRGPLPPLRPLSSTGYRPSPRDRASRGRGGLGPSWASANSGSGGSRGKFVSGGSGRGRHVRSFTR
UniProt Q5T200: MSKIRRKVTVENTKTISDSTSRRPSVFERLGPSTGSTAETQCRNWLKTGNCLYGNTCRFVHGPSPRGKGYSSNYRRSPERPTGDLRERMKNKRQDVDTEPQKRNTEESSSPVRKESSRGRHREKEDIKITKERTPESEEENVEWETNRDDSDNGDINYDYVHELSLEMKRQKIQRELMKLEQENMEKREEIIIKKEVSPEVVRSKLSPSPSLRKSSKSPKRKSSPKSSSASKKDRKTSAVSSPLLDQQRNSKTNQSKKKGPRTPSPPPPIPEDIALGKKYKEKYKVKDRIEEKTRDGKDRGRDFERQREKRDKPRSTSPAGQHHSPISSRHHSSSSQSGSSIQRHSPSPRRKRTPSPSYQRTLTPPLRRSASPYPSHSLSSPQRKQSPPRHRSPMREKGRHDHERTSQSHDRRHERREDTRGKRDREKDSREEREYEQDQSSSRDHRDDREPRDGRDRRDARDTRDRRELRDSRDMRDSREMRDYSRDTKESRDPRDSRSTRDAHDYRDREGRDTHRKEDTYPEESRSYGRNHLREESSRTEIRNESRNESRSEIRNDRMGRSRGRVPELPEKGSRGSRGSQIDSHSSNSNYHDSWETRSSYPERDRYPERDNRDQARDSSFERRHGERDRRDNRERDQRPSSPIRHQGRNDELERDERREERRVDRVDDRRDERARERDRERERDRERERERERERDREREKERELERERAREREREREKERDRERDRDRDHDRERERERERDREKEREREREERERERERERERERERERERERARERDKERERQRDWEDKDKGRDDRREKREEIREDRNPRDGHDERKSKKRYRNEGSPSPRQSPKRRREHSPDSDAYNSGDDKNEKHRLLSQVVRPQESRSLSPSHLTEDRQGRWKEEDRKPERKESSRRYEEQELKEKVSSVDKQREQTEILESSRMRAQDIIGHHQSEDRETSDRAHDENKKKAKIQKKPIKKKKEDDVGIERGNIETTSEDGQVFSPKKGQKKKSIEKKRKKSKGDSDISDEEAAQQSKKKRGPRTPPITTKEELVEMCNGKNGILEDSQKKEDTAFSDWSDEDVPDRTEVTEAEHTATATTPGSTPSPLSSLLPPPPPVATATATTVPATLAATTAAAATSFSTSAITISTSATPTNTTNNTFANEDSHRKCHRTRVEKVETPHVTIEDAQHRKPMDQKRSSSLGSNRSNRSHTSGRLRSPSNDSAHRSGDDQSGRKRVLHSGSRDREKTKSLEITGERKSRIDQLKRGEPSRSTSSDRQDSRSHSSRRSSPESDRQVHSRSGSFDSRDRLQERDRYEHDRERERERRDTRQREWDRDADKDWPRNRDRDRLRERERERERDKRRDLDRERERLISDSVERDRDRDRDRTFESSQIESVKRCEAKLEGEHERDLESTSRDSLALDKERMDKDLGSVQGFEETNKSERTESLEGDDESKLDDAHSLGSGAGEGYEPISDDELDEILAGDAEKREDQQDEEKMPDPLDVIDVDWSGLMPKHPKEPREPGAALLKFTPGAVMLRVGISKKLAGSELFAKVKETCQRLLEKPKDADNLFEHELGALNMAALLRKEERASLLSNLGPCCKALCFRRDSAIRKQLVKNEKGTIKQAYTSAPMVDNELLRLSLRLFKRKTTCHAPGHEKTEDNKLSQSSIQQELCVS
UniProt Q9H5H4: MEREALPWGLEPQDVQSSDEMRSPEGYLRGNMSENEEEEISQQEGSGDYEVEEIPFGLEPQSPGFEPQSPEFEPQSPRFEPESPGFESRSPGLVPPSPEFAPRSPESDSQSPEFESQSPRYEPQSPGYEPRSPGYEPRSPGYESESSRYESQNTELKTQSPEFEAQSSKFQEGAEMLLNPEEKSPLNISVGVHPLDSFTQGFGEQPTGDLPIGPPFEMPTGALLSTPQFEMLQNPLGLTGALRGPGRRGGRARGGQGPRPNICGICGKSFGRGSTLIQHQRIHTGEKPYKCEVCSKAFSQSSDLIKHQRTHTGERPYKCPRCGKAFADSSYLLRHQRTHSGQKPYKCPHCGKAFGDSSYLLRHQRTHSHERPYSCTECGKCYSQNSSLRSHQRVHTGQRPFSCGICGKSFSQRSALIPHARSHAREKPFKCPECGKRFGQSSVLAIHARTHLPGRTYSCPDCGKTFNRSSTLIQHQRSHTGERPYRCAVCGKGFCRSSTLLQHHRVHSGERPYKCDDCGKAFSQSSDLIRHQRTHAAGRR

Key:
Experiment in all cases: co-IP; anti-FLAG M2 beads; 3×FLAG-tagged SPOC domains, full-length or ΔSPOC proteins expressed in HEK293T; lysis in 50 mM Tris-Cl pH 8, 150 mM NaCl, 0.1% Triton with benzonase; elution with 3×FLAG peptide; western blot; performed once
[1] = biological target: 3×FLAG-NLS-RBM15-SPOC (human) (UniProt Q96T37)
[2] = biological target: 3×FLAG-RBM15 (human) (UniProt Q96T37)
[3] = biological target: 3×FLAG-DIDO3 (human) (UniProt Q9BTC0)
[4] = biological target: 3×FLAG-PHF3 (human) (UniProt Q92576)

Substance	binding [1]	binding [2]	binding [3]	binding [4]
PCNA (from UniProt P12004 1-261)	binds	no binding	–	–
VIRMA/KIAA1429 (from UniProt Q69YN4 1-1812)	binds	–	–	–
ZC3H13 (from UniProt Q5T200 1-1668)	binds	–	–	–
ZNF768 (from UniProt Q9H5H4 1-540)	–	–	binds	binds
